Experimental data from PubChem BioAssay AID1671193 (National Center for Advancing Translational Sciences (NCATS), 2021).
The campaign covered roughly 150,000 compounds. About 180 (0.12%) were called active. The shares of active, inactive and inconclusive entries below differ from those in the screen. Calls follow the shape of the dose curve; as a rule, active = well fitted cell-killing curve with a large enough effect; inconclusive = small, poorly fitted or top-dose-only effect, or effect the other way; inactive = flat fitted curve, though single readings scatter. Potencies of inconclusive entries are doubtful fits and often do not repeat.

Test: GF-AFC viability counterscreen for inhibitors of alpha-synuclein gene (SNCA) expression; also: nearly all actives have a fitted effect of over 30% in size
Settings: HEK-293-SNCA-luc viability, GF-AFC fluorescence, 24 h; series mostly up to 57.1 µM
Procedure, shortened: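 HEK-293-SNCA-luc cells (1500/well) plated 24 h, then exposed 24 h to a dilution series; GF-AFC added 30 min at 37C, fluorescence 405/540 nm; normalised to medium-only and DMSO wells, Hill fit.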
Potency is read from the fitted curve at half-maximal effect; tags tell the direction and shape of the fitted curve.

| SMILES | Potency |
| --- | --- |
| CCOC(=O)C1(Cc2ccccc2C(F)(F)F)CCN(C(C)Cc2cccc(C)n2)CC1 (centres undefined) | inconclusive: 39.8 µM [cytotoxic, single point] |
| COc1ccc(CCC(=O)N2CCC(Cc3nc(-c4ccc(F)cc4)no3)CC2)cc1 | inconclusive: 7.08 µM [cytotoxic, partial curve, poor fit] |
| Cc1ccc(Cn2c(=O)n(-c3ccc(C)c(C)c3)c(=O)c3c(C)c(C)sc32)cc1 | inconclusive: 3.16 µM [cytotoxic, single point] |
| COc1ccc(-c2nc(C)nc3c2CN(C(=O)c2cccc(Cl)c2)CC3)cc1 | inactive |
| COC(=O)C1=C(C)N=C2SC=C(CC(=O)NCc3ccccc3)N2C1c1cccc(F)c1 (centres undefined) | inactive |
| Cn1cc(-c2cnc(NC(=O)c3c[nH]c4ccccc34)c3c2CCO3)cn1 | inactive |
| Cc1cnc(C2CCOCC2)n1C1CCCN(Cc2ccc(C#N)cc2)C1 (centres undefined) | inactive |
| CCCCCn1c(CNC(=O)c2ccc(F)cc2)nc2ccccc21 | inconclusive: 39.8 µM [cytotoxic, single point] |
| COc1ccc(S(=O)(=O)NCCc2sc(-c3cccc(C)c3)nc2C)cc1 | inconclusive: 31.6 µM [cytotoxic, partial curve, poor fit] |
| CCNC(=O)N1CCCC(Cc2noc(-c3cnccn3)n2)C1 (centres undefined) | inactive |
| CCNC(=O)N[C@@H]1C=C[C@@H](c2c(C)nn(-c3ccc(F)cc3)c2C)C1 | inactive |
| O=C(NCCCc1ccccc1F)[C@@]12CNC[C@@H]1CN(Cc1ccccc1)C2 | inactive |
| COc1cccc(C2c3c(-c4ccccc4O)n[nH]c3C(=O)N2Cc2cccnc2)c1 (centres undefined) | inconclusive: 12.6 µM [cytotoxic, partial curve, poor fit] |
| C=Cc1ccc(Cn2c(C(=O)O)c(CNCc3ccccc3)c3ccc(OC)cc32)cc1 | inconclusive: 28.2 µM [cytotoxic, single point] |
| CN(C)c1ncc2nc(-c3cccs3)c(=O)n(C)c2n1 | inconclusive: 7.94 µM [rising, full curve, poor fit] |
| Cc1ccc(C(=O)Nc2ccc(C(=O)OCc3cc(=O)n4c5c(sc4n3)CCCC5)cc2)cc1 | inconclusive: 10 µM [cytotoxic, partial curve, poor fit] |
| COc1cc2ncnc(Nc3ccc(F)c(Cl)c3)c2cc1NC(=O)/C=C/CN1CCCCC1 | active: 23.8 µM |
| O=C(Nc1ccc2c(c1)OCCO2)N1CCCCCC1c1nc(-c2cccnc2)no1 (centres undefined) | inconclusive: 35.5 µM [cytotoxic, single point] |
| COCCN1C(=O)c2cccn2CC1CNC(=O)NCc1ccc(C)cc1 (centres undefined) | inactive |
